According to patent US20070099244A1 (TEXAS A AND M UNIVERSITY SYSTEM, published 2007):

How the values were obtained:
[1] = target: T1, bovine mature type II collagen (Sigma) (bovine, UniProt P02459 182-1487); test: SPR (BIAcore 3000), collagen immobilised on a CM5 chip, equilibrium analysis; low affinity class of sites
T1 construct: mature; Bought tissue collagen; also called type II mature collagen; Collagen II

[2] = target: T2, purified recombinant human type I procollagen (yeast cells from FibroGen) (human, UniProt P02452 23-1464; P08123 23-1366, hydroxyproline residues formed by co-expressed prolyl 4-hydroxylase; positions not given); test: as above
T2 construct: Procollagen, triple helical; also called Collagen I; procollagen I

[3] = target: T3, purified recombinant human type III procollagen (yeast cells from FibroGen) (human, UniProt P02461 24-1466, hydroxyproline residues formed by co-expressed prolyl 4-hydroxylase; positions not given); test: as above
T3 construct: also called Collagen III; procollagen III
T3 sequence (looked up): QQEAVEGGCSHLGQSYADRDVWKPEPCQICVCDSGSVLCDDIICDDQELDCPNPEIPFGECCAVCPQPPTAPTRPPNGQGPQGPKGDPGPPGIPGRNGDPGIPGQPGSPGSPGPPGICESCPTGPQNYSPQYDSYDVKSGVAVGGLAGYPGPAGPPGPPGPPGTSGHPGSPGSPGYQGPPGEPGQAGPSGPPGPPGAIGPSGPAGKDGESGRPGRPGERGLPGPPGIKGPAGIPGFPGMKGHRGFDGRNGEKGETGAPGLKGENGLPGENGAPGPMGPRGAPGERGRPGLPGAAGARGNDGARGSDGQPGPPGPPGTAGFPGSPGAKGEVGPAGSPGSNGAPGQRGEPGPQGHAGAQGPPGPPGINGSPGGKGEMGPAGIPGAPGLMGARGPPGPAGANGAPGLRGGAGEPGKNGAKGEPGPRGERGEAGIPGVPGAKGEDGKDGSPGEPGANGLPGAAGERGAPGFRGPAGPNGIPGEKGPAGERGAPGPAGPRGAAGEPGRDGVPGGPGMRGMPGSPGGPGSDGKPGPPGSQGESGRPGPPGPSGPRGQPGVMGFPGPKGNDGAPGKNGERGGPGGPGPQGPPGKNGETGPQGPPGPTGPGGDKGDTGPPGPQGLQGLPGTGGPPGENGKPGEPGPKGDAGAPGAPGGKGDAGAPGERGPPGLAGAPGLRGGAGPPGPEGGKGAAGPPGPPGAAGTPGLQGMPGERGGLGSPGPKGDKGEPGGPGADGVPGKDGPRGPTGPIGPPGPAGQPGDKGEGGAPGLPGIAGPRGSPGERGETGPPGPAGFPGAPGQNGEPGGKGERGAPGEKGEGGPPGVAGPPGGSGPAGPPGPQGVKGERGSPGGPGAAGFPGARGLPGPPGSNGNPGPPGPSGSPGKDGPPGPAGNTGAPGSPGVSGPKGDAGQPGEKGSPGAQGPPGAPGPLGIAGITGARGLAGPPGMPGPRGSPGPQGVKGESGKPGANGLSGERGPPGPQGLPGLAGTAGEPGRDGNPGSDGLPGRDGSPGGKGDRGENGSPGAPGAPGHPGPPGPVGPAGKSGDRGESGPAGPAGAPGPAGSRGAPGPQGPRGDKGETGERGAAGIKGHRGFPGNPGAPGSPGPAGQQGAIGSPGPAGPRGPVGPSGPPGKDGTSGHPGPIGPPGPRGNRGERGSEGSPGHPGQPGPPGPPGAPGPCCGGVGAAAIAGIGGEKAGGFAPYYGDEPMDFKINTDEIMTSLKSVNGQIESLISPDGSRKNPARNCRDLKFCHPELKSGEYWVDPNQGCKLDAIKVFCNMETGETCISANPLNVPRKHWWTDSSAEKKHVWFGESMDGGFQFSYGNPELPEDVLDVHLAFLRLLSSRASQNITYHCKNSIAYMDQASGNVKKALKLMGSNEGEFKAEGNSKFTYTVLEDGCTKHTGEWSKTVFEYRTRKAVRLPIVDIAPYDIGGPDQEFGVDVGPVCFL

[4] = target: T1, bovine mature type II collagen (Sigma); test: SPR (BIAcore 3000), collagen immobilised on a CM5 chip, equilibrium analysis; high affinity class of sites
[5] = target: T2, purified recombinant human type I …; test: as above
[6] = target: T3, purified recombinant human type III …; test: as above

T1 sequence (P02459 182-1487): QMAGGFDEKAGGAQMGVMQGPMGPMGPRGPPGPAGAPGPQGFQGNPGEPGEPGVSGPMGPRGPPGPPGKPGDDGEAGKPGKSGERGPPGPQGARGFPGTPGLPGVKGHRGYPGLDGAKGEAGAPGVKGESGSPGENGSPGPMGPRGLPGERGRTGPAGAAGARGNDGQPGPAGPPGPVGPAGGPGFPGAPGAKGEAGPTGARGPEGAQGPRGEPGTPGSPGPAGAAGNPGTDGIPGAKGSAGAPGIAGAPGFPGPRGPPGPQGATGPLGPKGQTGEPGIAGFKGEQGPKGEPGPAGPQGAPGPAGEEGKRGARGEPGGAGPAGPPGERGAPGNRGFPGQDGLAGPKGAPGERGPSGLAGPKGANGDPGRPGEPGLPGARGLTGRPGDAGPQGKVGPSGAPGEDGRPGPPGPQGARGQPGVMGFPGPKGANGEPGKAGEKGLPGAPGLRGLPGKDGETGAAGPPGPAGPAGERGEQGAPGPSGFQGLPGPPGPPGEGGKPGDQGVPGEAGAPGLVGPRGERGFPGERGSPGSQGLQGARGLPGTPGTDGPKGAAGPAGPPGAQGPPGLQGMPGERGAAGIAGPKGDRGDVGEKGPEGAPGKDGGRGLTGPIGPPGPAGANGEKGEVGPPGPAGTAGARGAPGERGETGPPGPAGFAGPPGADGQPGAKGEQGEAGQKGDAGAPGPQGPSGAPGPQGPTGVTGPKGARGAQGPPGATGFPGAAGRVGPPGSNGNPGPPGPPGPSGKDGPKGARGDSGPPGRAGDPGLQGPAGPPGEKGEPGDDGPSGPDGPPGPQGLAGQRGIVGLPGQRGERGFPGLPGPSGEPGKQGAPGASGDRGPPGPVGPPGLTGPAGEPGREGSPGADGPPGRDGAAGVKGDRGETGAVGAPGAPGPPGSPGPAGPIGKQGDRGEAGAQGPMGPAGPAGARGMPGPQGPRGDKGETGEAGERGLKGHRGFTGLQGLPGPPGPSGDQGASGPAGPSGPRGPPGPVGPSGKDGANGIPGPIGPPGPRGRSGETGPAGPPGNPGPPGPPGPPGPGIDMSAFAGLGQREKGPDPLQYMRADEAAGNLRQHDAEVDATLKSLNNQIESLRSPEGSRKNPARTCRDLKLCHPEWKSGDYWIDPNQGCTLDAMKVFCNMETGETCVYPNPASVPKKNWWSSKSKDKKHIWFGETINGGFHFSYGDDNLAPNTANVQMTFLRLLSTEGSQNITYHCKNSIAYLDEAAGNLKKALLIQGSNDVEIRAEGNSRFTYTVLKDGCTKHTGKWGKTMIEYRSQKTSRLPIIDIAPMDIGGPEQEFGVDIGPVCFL
T2 sequence (P02452 23-1464, chain 1 of 2): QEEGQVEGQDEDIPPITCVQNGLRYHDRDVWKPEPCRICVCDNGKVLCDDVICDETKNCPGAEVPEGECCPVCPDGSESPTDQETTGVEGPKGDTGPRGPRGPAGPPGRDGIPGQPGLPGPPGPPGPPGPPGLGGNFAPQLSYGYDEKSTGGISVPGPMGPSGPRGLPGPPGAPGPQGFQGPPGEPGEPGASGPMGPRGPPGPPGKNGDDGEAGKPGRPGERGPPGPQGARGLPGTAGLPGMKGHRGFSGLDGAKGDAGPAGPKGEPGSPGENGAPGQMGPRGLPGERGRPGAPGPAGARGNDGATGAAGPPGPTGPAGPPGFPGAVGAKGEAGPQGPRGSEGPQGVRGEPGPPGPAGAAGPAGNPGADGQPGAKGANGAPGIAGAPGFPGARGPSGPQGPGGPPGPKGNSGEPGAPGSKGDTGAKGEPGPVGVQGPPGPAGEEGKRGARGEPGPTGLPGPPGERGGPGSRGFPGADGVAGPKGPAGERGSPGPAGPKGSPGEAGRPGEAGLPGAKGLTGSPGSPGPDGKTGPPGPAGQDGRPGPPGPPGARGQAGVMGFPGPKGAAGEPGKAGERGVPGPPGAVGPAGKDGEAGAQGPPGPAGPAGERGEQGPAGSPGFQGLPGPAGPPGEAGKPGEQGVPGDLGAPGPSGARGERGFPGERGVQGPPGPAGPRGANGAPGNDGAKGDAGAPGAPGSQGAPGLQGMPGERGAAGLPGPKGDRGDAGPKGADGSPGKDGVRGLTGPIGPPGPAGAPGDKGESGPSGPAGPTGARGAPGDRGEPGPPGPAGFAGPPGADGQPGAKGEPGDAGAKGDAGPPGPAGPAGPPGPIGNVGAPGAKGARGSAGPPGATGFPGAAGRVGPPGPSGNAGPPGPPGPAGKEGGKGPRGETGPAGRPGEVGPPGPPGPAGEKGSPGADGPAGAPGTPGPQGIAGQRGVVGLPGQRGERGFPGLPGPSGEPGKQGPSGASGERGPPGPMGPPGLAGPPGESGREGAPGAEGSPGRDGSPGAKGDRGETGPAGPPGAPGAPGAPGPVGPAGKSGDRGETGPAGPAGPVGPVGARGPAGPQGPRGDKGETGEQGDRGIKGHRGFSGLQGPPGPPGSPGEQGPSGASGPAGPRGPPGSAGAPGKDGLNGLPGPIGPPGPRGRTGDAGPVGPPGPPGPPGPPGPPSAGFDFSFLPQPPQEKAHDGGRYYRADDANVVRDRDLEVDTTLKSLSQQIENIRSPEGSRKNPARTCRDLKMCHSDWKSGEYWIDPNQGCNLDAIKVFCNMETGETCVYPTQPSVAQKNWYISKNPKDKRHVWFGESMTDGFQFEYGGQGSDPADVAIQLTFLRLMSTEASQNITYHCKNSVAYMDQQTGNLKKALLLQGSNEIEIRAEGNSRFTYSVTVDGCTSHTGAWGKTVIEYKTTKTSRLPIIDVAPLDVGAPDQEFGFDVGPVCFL
T2 sequence (P08123 23-1366, chain 2 of 2, further chain): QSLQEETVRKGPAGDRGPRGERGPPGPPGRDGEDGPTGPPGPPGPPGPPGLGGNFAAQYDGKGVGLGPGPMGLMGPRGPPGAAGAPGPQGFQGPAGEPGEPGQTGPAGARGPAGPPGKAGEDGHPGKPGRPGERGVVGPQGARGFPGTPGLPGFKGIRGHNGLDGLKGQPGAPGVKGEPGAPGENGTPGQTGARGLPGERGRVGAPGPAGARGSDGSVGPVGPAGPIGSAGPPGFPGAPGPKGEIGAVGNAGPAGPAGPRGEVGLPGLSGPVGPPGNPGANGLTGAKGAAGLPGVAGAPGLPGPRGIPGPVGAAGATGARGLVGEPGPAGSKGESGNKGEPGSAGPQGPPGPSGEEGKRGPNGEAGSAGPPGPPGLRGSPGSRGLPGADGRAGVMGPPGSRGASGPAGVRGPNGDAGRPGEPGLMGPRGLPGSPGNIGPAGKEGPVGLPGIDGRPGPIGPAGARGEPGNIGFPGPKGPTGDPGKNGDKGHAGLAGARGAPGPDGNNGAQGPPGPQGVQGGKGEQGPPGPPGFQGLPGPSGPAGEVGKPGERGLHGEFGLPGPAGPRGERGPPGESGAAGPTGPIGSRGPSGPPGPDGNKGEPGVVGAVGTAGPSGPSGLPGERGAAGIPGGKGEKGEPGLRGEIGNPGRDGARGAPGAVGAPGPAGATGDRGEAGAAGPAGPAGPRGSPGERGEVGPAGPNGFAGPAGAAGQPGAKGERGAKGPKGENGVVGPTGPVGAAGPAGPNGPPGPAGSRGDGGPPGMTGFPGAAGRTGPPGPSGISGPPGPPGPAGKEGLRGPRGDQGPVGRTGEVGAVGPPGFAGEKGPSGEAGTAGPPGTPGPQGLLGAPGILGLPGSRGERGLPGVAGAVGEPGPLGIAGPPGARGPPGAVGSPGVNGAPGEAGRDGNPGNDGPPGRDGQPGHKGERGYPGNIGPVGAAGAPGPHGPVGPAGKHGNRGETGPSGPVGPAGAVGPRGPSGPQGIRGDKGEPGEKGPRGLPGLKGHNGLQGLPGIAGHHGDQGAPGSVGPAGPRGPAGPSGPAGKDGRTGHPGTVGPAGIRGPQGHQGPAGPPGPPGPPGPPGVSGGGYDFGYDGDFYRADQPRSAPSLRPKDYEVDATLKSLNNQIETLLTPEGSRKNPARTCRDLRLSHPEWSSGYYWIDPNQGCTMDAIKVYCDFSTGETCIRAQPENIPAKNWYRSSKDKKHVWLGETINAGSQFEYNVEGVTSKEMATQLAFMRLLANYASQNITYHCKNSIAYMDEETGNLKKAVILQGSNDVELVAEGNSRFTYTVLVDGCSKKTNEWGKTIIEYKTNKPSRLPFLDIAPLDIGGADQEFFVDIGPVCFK

B1: recombinant I domain of integrin α1 subunit (receptor)
chain: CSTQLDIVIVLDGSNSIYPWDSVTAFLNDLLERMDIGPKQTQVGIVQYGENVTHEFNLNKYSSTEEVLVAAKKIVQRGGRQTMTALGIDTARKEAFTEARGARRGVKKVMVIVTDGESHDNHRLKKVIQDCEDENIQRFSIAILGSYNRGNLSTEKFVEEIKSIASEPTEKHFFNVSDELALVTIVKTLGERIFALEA
Kd [1]: 7.28 µM | Kd [2]: 5.5 µM | Kd [3]: 6.15 µM | Kd [4]: 150 nM | Kd [5]: 320 nM | Kd [6]: 190 nM
